The values below come from PubChem BioAssay AID1645887 (National Center for Advancing Translational Sciences (NCATS), 2021).

“And” between values parts separate entries of the source, which are not always exact repeats. Identical values can stand only once. Among all 16,000 compounds or so, about 40 (0.2%) were called active. Another 1% or so got no clear call; they are omitted. The call rests on the fitted dose curve; in most records, active means well fitted activation curve with a large enough effect; inconclusive means small, poorly fitted or top-dose-only effect, or another doubt; inactive means no such curve, though single readings can be large or run the other way. The list shows a part of the results. Residues, ends and D or L forms follow the SMILES beside them. *: point of attachment. Cbz = O=C(OCc1ccccc1)*
On the % scale 0 is the no-effect control and ±100 the full control effect.

Sequence of UniProt Q8WZA2 (Q8WZA2 whole entry, looked up): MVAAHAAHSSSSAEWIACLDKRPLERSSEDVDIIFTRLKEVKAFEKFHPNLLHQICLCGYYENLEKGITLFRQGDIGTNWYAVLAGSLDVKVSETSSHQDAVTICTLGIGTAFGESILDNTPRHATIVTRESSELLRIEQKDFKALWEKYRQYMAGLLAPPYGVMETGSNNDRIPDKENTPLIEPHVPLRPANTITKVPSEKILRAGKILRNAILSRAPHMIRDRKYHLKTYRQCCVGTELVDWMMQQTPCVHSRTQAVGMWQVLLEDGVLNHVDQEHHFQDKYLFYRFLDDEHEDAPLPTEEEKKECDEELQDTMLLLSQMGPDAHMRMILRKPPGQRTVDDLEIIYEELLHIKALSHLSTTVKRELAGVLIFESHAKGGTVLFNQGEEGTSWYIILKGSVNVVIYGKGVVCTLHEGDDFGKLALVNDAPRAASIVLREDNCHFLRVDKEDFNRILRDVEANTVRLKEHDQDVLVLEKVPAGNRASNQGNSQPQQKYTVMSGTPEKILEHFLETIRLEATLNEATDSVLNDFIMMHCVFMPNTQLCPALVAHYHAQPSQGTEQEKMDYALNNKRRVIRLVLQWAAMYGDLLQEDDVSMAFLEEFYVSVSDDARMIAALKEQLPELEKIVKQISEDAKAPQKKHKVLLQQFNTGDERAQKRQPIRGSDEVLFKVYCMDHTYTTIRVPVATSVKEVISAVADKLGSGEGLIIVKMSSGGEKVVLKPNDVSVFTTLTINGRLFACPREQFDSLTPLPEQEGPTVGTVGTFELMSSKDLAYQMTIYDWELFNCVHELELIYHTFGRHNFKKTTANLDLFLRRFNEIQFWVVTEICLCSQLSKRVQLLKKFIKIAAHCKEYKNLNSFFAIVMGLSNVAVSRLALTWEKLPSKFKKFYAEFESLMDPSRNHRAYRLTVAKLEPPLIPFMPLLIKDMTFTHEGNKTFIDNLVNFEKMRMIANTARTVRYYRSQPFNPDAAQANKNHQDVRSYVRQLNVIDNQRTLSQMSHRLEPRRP

The experiment addresses Rap guanine nucleotide exchange factor 4 (Homo sapiens) (UniProt Q8WZA2). Briefly: Validation qHTS for agonist of cAMP-regulated guanine nucleotide exchange factor 4 (EPAC2).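 Further: exchange makes BODIPY-GDP fluorescence drop when released from Rap1B; series mostly up to about 150 µM.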 The conditions noted are these: EPAC2 Rap1B BODIPY-GDP exchange, fluorescence; activation: active compounds read high. Summed up:
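Fluorescent exchange assay: 100 nM EPAC2 with 250 nM RAP1B-BODIPY-GDP and 50 uM GDP; compound added, 5 min at room temperature, then read (ex 480/em 540 nm) every 5 min for 30 min. Normalized to 6.5 mM cAMP agonist control.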
Background: qHTS replaces the single test concentration by a dilution series.
On to `N#Cc1ccc(CN2CC[C@@]3(CCCN(C(=O)c4ccncc4)C3)C2)cc1`, for which the activation is inactive: -9.71%. Regarding `COc1ccc(-n2c(=O)cnc3cnc(N(C)C)nc32)cc1`, the activation was inactive: -6.54%. The result for `Cc1ccccc1-c1nc(NCc2cccs2)c2ccccc2n1` reads inactive: 2.92%; that for `COC(=O)[C@@H]1CCCN1C(=O)c1c(OC)cc(=O)n2c1CCN(Cc1c(C)[nH]c3ccccc13)CC2`, inactive: -0.341%; that for `CN(N=O)C(=O)N[C@H]1C(O)OC(CO)[C@@H](O)[C@H]1O` (stereo partly drawn), inactive: -5.09%. For the compound `CC1(C)OC(=O)NC1=O`, the activation is inactive: 9.54%. Next, `O=c1c(-c2ccc(F)cc2)nc2cnc(N3CCNCC3)nc2n1Cc1ccc(F)cc1`: inactive: -8.6%; `CS(=O)(=O)N1CCC2(CCN(Cc3nccs3)CC2)CC1`: inactive: -8.36%. The result for `Nc1ccc(C(=O)NCC(=O)O)cc1` reads inactive: -4.08% and inactive: 1.12%; that for `COc1ccc(NS(=O)(=O)c2ccc(N)cc2)nn1`, inactive: 4.21% and inactive: -9.82%. Regarding `COc1ccccc1CN1CC2(CCN(C(=O)c3ccncc3)CC2)C1`, the activation is inactive: -9.78%. For the compound `C#C[C@]1(O)CC[C@H]2[C@@H]3CCC4=Cc5oncc5CC4(C)[C@H]3CCC21C` (stereo partly drawn), the activation is inactive: -50.9%. Next, `CCCC(=O)O[C@]1(C(=O)COC(C)=O)CC[C@H]2[C@@H]3C[C@H](F)C4=CC(=O)C=C[C@]4(C)[C@@]3(F)[C@@H](O)C[C@@]21C`: inactive: -0.176%; `O=C(c1cccc(F)c1)N1CCC2(CC1)CN(Cc1ccccc1)C2`: inactive: 4.34%; `Cn1nnnc1SCC1=C(C(=O)O)N2C(=O)[C@@H](NC(=O)[C@H](O)c3ccccc3)[C@H]2SC1`: inactive: -12.4%. Next, `COCCn1c(=O)c(CCc2ccccc2)nc2cnc(Oc3ccc(OC)cc3)nc21`: inactive: -11.5%. Next, `Cc1csc(C)[n+]1CCC1CCCCC1`: inactive: -2.4%; `O=C1C2=C(S[C@@H]3O[C@H](CO)[C@@H](O)[C@H](O)[C@H]3O2)C(=O)c2ccccc21`: inactive: -9.79%; `CN(C)c1nc(-c2cccnc2)nc2ccccc12`: inactive: -4.79%.

As for `O=C(O)c1cc(O)c2c(c1)[O][Bi][O]2`, the activation is inactive: 1.7%.

On to `CN1CCN(c2ncc3nc(-c4ccc(Cl)cc4)c(=O)n(Cc4ccc(F)cc4)c3n2)CC1`, for which the activation is inactive: -6.25%. The result for `CCCCC(C)(O)C/C=C/[C@H]1[C@H](O)CC(=O)[C@@H]1CCCCCCC(=O)OC` (stereo partly drawn) reads inactive: -19.4%; that for `CCC1(O)CC2CN(CCc3c([nH]c4ccccc34)[C@@](C(=O)OC)(c3cc4c(cc3OC)N(C)C3[C@]45CCN4CC=C[C@@](CC)([C@@H](OC(C)=O)[C@]3(O)C(=O)OC)[C@H]45)C2)C1` (stereo partly drawn), inactive: 7.14%. Consider `Cc1ccc2cc(CNCc3cccc4ccccc34)c(N3CCC(O)CC3)nc2c1`, for which the activation was inactive: -8.51%.

Turning to `CCCCC/C=C\C\C=C/C=C/C=C/[C@@H](SCC(NC(C)=O)C(=O)O)[C@@H](O)CCCC(=O)O` (stereo partly drawn), the activation was inactive: 4.36%. Next, `NC(C(=O)O)C(O)C(=O)O` (stereo not drawn): inactive: -12.8%. The result for `Cc1ncc(CSSCc2cnc(C)c(O)c2CO)c(CO)c1O` reads inactive: -4.13%; that for `N#Cc1cccc(-c2cncnc2NCc2ccccc2)c1`, inactive: -9.93%; that for `C[C@H](CCC(=O)O)[C@H]1CC[C@H]2[C@H]3C(C[C@H](O)[C@]12C)[C@@]1(C)CC[C@@H](O)C[C@H]1C[C@H]3O` (stereo partly drawn), inactive: -4.43%.

Regarding `C=C[C@@H]1c2ccccc2N(S(=O)(=O)c2ccc(C)cc2)[C@H](c2ccc(C(F)(F)F)cc2)C1(C#N)C#N`, the activation was inactive: -21.4%. The result for `NCCn1c(=O)c(CCc2ccccc2)nc2cncnc21` reads inactive: -2.18%; that for `CCC1(C2CCN(Cc3cccc(Cl)c3)CC2)NC(=O)N(CC2COc3ccccc3O2)C1=O` (stereo not drawn), inactive: 8.42%. Next, `COc1ccccc1CN1CCCC2(CCN(C(=O)c3cnccn3)CC2)C1`: inactive: -15.6%; `O=C(NC1CCC(=O)N(CCSc2ccccc2)CC1)OCc1ccccc1` (stereo not drawn): inactive: -15.9%; `Nc1nc(Cl)nc2c1ncn2[C@@H]1O[C@H](COP(=O)(O)OP(=O)(O)OP(=O)(O)O)[C@@H](O)[C@H]1O`: inactive: 2.2%.

Regarding `CC(=O)Oc1cccc2c1C(=O)c1c(OC(C)=O)cc(C(=O)O)cc1C2=O`, the activation is inactive: -25.9%.

Regarding `C#C[C@]1(O)CC[C@@H]2[C@H]3CCC4=CC(=O)CC[C@H]4[C@H]3C(=C)C[C@@]21CC`, the activation is inactive: -15.7%. The result for `COc1ccccc1CNc1nc(-c2cccc(C#N)c2)nc2ccccc12` reads inactive: 12.8%. For the compound `CC(C)C[C@@H](C=O)NC(=O)[C@H](CC(C)C)NC(=O)[C@H](CC(C)C)NC(=O)OCc1ccccc1` (Cbz-Leu-Leu-Leu-aldehyde), the activation was inactive: 2.4%. Next, `COc1cc(OC)c(/C=C/c2ccccn2)c(OC)c1`: inactive: -21.2%. Next, `COc1ccc(C(C)N(C)Cc2nc(N3CCN(C(=O)c4ccco4)CC3)c3ccccc3n2)cc1` (stereo not drawn): inactive: 4.59%; `Cc1ccc(CNc2nc(CN3CCSCC3)nc3ccccc23)o1`: inactive: 12.9%.

As to `COCCN1CCN(C(=O)c2cnn(-c3nccc(-c4ccco4)n3)c2C(C)C)CC1`, the activation is inactive: -0.691%.

As to `CCCCN1CC[C@H]2C=CC[C@@H](C(=O)Nc3nccs3)[C@H]2C1=O`, the activation was inactive: -8.44%. As for `Nc1ccn([C@H]2CS[C@@H](CO)O2)c(=O)n1`, the activation is inactive: 6.23%. Next, `Cc1nc2cc(NC(=O)C3CC34CCN(Cc3ccc(O)c(Cl)c3)CC4)ccc2s1` (stereo not drawn): inactive: 7.25%; `COc1ncc2nc(-c3ccccc3)c(=O)n(C)c2n1`: inactive: -1.94%. Take `COCC(=O)N1CCC2(CCN(Cc3ccncc3)CC2)CC1`: the activation was inactive: -14.3%. The result for `COc1cccc(-c2ccc3ncnc(NCCN4CCOCC4)c3c2)c1` reads inactive: -6.34%; that for `O=S1(=O)[C@H]2C[C@@H]3C=C[C@@]2(CN1Cc1cccc(F)c1)O3`, inactive: -14.7%. Next, `CN1CCN(c2ncc3nc(CCc4ccccc4)c(=O)n(Cc4ccc(F)cc4)c3n2)CC1`: inactive: 6.18%; `C=C1C[C@H]2[C@@H]3C=C(C)C4=CC(=O)CC[C@]4(C)[C@H]3CC[C@]2(C)[C@@]1(OC(C)=O)C(C)=O`: inactive: -3.47%; `C[C@H](N)CCP(=O)(O)O`: inactive: -2.79%. Next, `O=C(c1cccc(F)c1)N1CCC2(CC1)CN(c1ncccn1)C2`: inactive: 1.34%; `COC(=O)C[C@](O)(CCCC(C)(C)O)C(=O)O[C@@H]1C(OC)=CC23CCCN2CCc2cc4c(cc2[C@H]13)OCO4` (stereo partly drawn): inactive: -24.8%. Regarding `c1ccc(CNc2ccnc(-c3cccnc3)n2)cc1`, the activation was inactive: -29.2%.

For `O=c1oc(Cl)c(Cl)c2ccccc12`, the activation was inactive: 0.201%. On to `O=C(NCc1ccccn1)c1cnn(-c2ncc3c(n2)-c2ccccc2CC3)c1C1CC1`, for which the activation is inactive: -10.1%. For `CC1=C(\C=C/C(C)=C/C=C\C(C)=C\C(=O)O)C(C)(C)CCC1`, the activation is inactive: -18.3% and inactive: -14.5% and inactive: -3.87%. As to `Cc1cc(-c2ccnc(-n3ncc(C(=O)NCC4CCCN(C)C4)c3C3CC3)n2)c(C)s1` (stereo not drawn), the activation is inactive: -15.9%.

In the case of `CN1C2CC(OC(=O)[C@H](CO)c3ccccc3)CC1C1OC12` (stereo partly drawn), the activation was inactive: -21.6%. Next, `N[C@H]1C(O)O[C@H](CO)[C@@H](O)[C@@H]1O` (stereo partly drawn): inactive: 9.11%; `Cc1cc(C(=O)NCC2CCC3(CCN(Cc4ccccc4C)CC3)O2)n(C)n1` (stereo not drawn): inactive: -9.56%; `OCC1OC(n2cnc3c(Cl)ncnc32)C(O)C1O` (stereo not drawn): inactive: -1.75%.

As for `CC(C)C(N)C(=O)O` (stereo not drawn), the activation was inactive: 8.46%. Regarding `COc1cc(NS(C)(=O)=O)ccc1Cc1c2ccccc2nc2ccccc12`, the activation is inactive: -17.5%. Take `O=C1Nc2ccccc2C(=O)N2CCC[C@@H]12`: the activation was inactive: -11.5%. Next, `COc1ccc(-c2cc(=O)c3c(O)cc(O)cc3o2)cc1`: inactive: -13.7% and inactive: -6.18%; `Cc1cnc(C)c(-c2ccc3c(c2)CC(CNC(=O)Cc2c(C)[nH]c4ccccc24)O3)n1` (stereo not drawn): inactive: -7.2%; `CC(=O)N[C@@H](CC(=O)N[C@@H](CCC(=O)O)C(=O)O)C(=O)O`: inactive: 9.5%.

Take `O=S(=O)(c1ccccc1)N1CCC2(CCCN(C(c3ccccc3)c3ccccc3)C2)CC1`: the activation was inactive: -18.5%.

On to `c1ccc(C(NCCNC(c2ccccc2)c2ccccc2)c2ccccc2)cc1`, for which the activation was inactive: -62.9%. The result for `O=c1c(O)cccc2cc(O)c(O)c(O)c12` reads inactive: 1.02%; that for `CCCCCCCCCCCCCCCC(=O)OCCC1CCN(CCCN2c3ccccc3Sc3ccc(S(=O)(=O)N(C)C)cc32)CC1`, inactive: -14.3%.

Consider `N#CCCn1c(=O)c(-c2ccccc2)nc2cnc(N3CCNCC3)nc21`, for which the activation was inactive: -6%. Next, `Cc1ccc(S(=O)(=O)NC(=O)NN2CC3CCCC3C2)cc1` (stereo not drawn): inactive: -5.8% and inactive: -1.93% and inactive: -16%; `CCC(C)C(C(=O)OCC[N+](C)(CC)CC)c1ccccc1` (stereo not drawn): inactive: 3.27%. As to `CC(C)CN1CCCC2(CCN(C(=O)c3cccc(F)c3)CC2)C1`, the activation was inactive: -15.5%. The result for `COc1ccc(-n2c(=O)c(CCc3ccccc3)nc3cnc(N4CCOCC4)nc32)cc1` reads inactive: -0.528%. Next, `CCNc1ncc2nc(-c3ccc(Cl)cc3)c(=O)n(CCC#N)c2n1`: inactive: -1.79%; `COC(=O)c1cc(CNC(=O)c2ccccc2)cc(NC(=O)c2ccccc2OC)c1`: inactive: -4.47%; `CN1CCN(c2ncc3nc(CCc4ccccc4)c(=O)n(C)c3n2)CC1`: inactive: -1.46%. Turning to `O=C(O)c1cc2ccccc2[nH]1`, the activation is inactive: -20.8%.
